In all, about 45,000 compounds went through this assay and about 200 (0.44%) were called active. Not shown: some 7% with an inconclusive outcome. The call rests on the fitted dose curve; in most records, active means well fitted activation curve with a large enough effect; inconclusive means small, poorly fitted or top-dose-only effect; inactive means no such curve, though single readings can be large or run the other way. The list shows a part of the results.
Experiment: qHTS of TDP-43 Inhibitors: NCGC Sytravon Library Screen; further: 0% is about no effect; nearly all actives have a fitted effect of over 55% in size
Details: yeast TDP-43 toxicity rescue, BacTiter-Glo growth, 24 h; series mostly up to 46.1 µM; growth rescue (activation): at the top concentration
Summary of the method: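 TDP-43-expressing yeast, pregrown in raffinose, seeded at OD600 0.02 in galactose medium with compound for 24 hr at 30 deg C. Growth read by BacTiter-Glo luminescence, so rescue of toxicity appears as activation.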

Row | SMILES | growth rescue (activation)
1 | CCCNNC(=O)C(O)(c1ccccc1)c1ccccc1 | inactive: -7.04%
2 | Cc1cccc(NC(=O)C2CCCN(c3nnc(-n4c(C)ccc4C)s3)C2)c1C (configuration not stated) | inactive: 11%
3 | CCOC(=O)c1nc(Nc2ccccc2C)c2ccccc2n1 | inactive: 11.4%
4 | N#Cc1c(-c2ccccc2)nc(SCC(=O)N(c2ccccc2)c2ccccc2)[nH]c1=O | inactive: 22.2%
5 | COc1ccc(CCn2c(-c3ccc(OC)cc3)nc3c(c(=O)c4ccccc4n3C)c2=O)cc1 | inactive: -1.19%
6 | C/C(=N\N1CCN(Cc2ccc(Cl)cc2)CC1)c1ccc(F)cc1 | inactive: 8.88%
7 | CCc1ccc(NC(=O)COc2cccc(-n3cnnn3)c2)cc1 | inactive: 19.6%
8 | C=CCOc1c(Br)cc(CNc2ccc(NC(=O)C(C)C)cc2)cc1OCC | inactive: 27.2%
9 | CN(C)c1ccc(CNc2nc(-c3ccccc3)nn2S(C)(=O)=O)cc1 | inactive: 9.98%
10 | CC(=O)c1cccc(OCC(O)CN2CCN(C(=O)c3ccco3)CC2)c1 (configuration not stated) | inactive: 10.6%
11 | Cc1ccc(/C=C2\CCn3c2nc2cc(C(=O)O)ccc2c3=O)c(C)c1 | inactive: 21%
12 | Cc1ccc(C)c(CN2C(=O)c3ccccc3S(=O)(=O)c3ccc(C(=O)N4CCN(C)CC4)cc32)c1 | inactive: 13.1%
13 | CN(CC(=O)Nc1cccc2ccccc12)C(=O)c1ccc(NC(=O)CC#N)cc1 | inactive: 14.2%
14 | O=C1/C(=C/c2ccc(Cl)cc2)NC(=S)N1Cc1cccnc1 | inactive: 3.58%
15 | CCCCCCCC(=O)NNC(=O)c1c(O)c2ccccc2n(CCC)c1=O | inactive: -39.4%
16 | Cc1ccc(C)c(OCC(=O)Nc2ccc(S(=O)(=O)Nc3ncccn3)cc2)c1 | inactive: 0.419%
17 | CCc1nc2ccc(C(=O)NCCN3CCNC3=O)cn2c1N(CC)CCOC | inactive: 8.54%
18 | Cc1ccc(S(=O)(=O)N2CCOCC2)cc1C(=O)N(C)CCOc1ccc(Cl)cc1 | inactive: -6.92%
19 | COC(=O)C(C)NC(=O)c1ccc(C(C)(C)C)cc1 (configuration not stated) | inactive: 12.1%
20 | COc1ccc(S(=O)(=O)N(CC(=O)N2CCCC2)Cc2ccccc2)cc1 | inactive: 21%
21 | COc1ccc(NC(=O)N2CCCC(C(=O)NCCc3ccccc3)C2)cc1 (configuration not stated) | inactive: 22.9%
22 | CSc1ccc(CN2CCC(C)(Oc3ccc(-n4ccnc4)cc3)C2)cc1 (configuration not stated) | inactive: -3.49%

Row | SMILES | growth rescue (activation)
23 | CC(=O)c1c(C)[nH]c(C(=O)NCCc2c[nH]c3ccccc23)c1C | inactive: -3.48%
24 | CC(C)(C)NC(=O)CN(C(=O)c1snc(C(=O)NC2CCCCC2)c1N)c1ccccc1F | inactive: 18.4%
25 | NC(=O)Cc1ccc(Nc2nnc(-c3ccccc3)c3ccccc23)cc1 | inactive: 11.2%
26 | COc1ccc(N2CCN(C(=O)[C@@H](NC(=O)c3cc(OC)cc(OC)c3)C(C)C)CC2)cc1 | inactive: 6.8%
27 | Cc1noc(C)c1COC(=O)CCC(=O)c1ccc(F)cc1 | inactive: 26.8%
28 | CCN(C(=O)COc1ccc(C(=O)c2ccccc2)cc1)c1ccccc1 | inactive: 29.5%
29 | Cc1ccc(NC(=O)CNc2ccc(Cl)c(Cl)c2)cc1S(=O)(=O)N(C)C | inactive: 8.67%
30 | NC(=O)N=Nc1c2[nH]c3ccccc3nc-2c2ccccc12 | inactive: 3.45%
31 | C=CCC1(CC=C)CCCN1C(=O)c1cc(COc2cccc(C(F)(F)F)c2)on1 | inactive: 9.66%
32 | O=C(Cn1ncc2c(=O)oc3ccccc3c21)NCc1cccnc1 | inactive: -9.05%
33 | Cc1ccc(NC(=S)NC(=O)c2ccc(Br)o2)c(C)c1 | inactive: 9.59%
34 | N/C(=C/C(=O)c1ccccc1O)C(F)(F)F | inactive: -0.457%
35 | Cc1cc(N2CCCCC2)nc(NCc2ccccc2)n1 | inactive: 13.7%
36 | Cc1ccc[n+](C(C)C(=O)Nc2ccc([N+](=O)[O-])cc2C)c1 (configuration not stated) | inactive: 10.7%
37 | Cc1ccc(S(=O)(=O)NCC(=O)N(CC(=O)NCC2CCCO2)Cc2ccco2)cc1 (configuration not stated) | inactive: 5.9%
38 | CC1(C(=O)NS(=O)(=O)c2ccccc2)CCN1C(=O)CC1CCCCC1 (configuration not stated) | inactive: 3.4%
39 | Cn1cc(C(=O)C(=O)NC2CC2)c2ccccc21 | inactive: -4.46%
40 | COCCCNC(=S)N1CCN(C)CC1 | inactive: -1.58%
41 | CC(=O)Nc1ccc(N(C(=O)Cc2c[nH]c3ccccc23)C(C(=O)NC2CCCCC2)c2ccco2)cc1 (configuration not stated) | inactive: 4.93%
42 | CCOc1ccc(-n2cnnn2)cc1S(=O)(=O)N1CCC(C)CC1C (configuration not stated) | inactive: -3.98%
43 | Cc1cc(C)c(C(=O)N(C)CC2CCCN(CCc3ccccc3F)C2)o1 (configuration not stated) | inactive: 14.7%
44 | C=CCn1c(OCc2ccccc2)n[nH]c1=S | inactive: -1.42%

Row | SMILES | growth rescue (activation)
45 | Cc1ccc(C(O)c2ncc(-c3ccc(Cl)cc3)[nH]2)cc1 (configuration not stated) | inactive: 9.21%
46 | CCOC(=O)N1CCC(N(CCN(C)C)C(=S)Nc2cc(C)cc(C)c2)CC1 | inactive: -50.8%
47 | CCOC(=O)C1=C(C)N(C)C(=O)NC1c1cc2c(cc1[N+](=O)[O-])OCO2 (configuration not stated) | inactive: 7.01%
48 | CC(C)N1CCC1(C)C(=O)Nc1nc2ccccc2[nH]1 (configuration not stated) | inactive: 15.9%
49 | O=C(NCc1cccc2[nH]ccc12)C1CCC(=O)N(CCc2ccc(Cl)cc2)C1 (configuration not stated) | inactive: 2.47%
50 | Cc1ccc(NC(=O)COC(=O)CCC2CCCC2)cc1S(=O)(=O)N1CCOCC1 | inactive: 6.39%
51 | COc1ccc(OC)c(NC(=O)COC(=O)CCCN=C2NS(=O)(=O)c3ccccc32)c1 | inactive: 7.37%
52 | CC1=C/C(=C\C=C(C#N)C#N)N(C)c2ccccc21 | inactive: 3.94%
53 | N#CC1=C(N)NC(=S)C(C(N)=O)C1c1ccccc1F (configuration not stated) | inactive: -26.2%
54 | Cc1ccc(NC(=O)c2ccc(Cl)cc2Cl)c(C(=O)c2ccccc2)c1 | inactive: 19.7%
55 | Cc1cc(=O)[nH]c(N/N=C/c2ccc(Cl)c([N+](=O)[O-])c2)n1 | inactive: 5.36%
56 | O=C(C[n+]1ccc(/C=C/c2ccccc2)cc1)c1ccc2c(c1)OCCO2 | inactive: 14.5%
57 | Cc1ccc(-c2nnn(CC(=O)NCc3ccccc3)n2)c(-n2cnnn2)c1 | inactive: -6.95%
58 | O=C(O)C1CN(C(=O)c2ccccc2)c2cc(Cl)ccc2O1 (configuration not stated) | inactive: 9.88%
59 | C=CCn1c(C)cc(C2=NNC(=NC(C)(C)C)SC2)c1C | inactive: 2.49%
60 | COc1ccc(CNC(=O)Cn2cc(C(F)(F)F)ccc2=O)cc1 | inactive: 9.55%
61 | CC(C)CNC(=S)N1CCN(c2nc(-c3ccc(Cl)cc3)cs2)CC1 | inactive: 24.1%
62 | CC(=O)n1cc(Nc2ccc([N+](=O)[O-])cc2)c2ccccc21 | inactive: -23.3%
63 | O=C(CSc1nnc(-c2cccnc2)o1)Nc1ccc(Cl)cc1 | inactive: 13.5%
64 | O=C(Nc1ccnn1C1CCN(C(=O)c2ccc(Cl)c(F)c2)CC1)C1CCOC1 (configuration not stated) | inactive: 22.4%
65 | COc1ccc([N+](=O)[O-])cc1NS(=O)(=O)c1cccc(C(=O)NCCCN2CCCC2=O)c1 | inactive: 15.5%
66 | CCOC(=O)c1c(CN(C)C)n(-c2ccccc2)c2cc(Br)c(OC)cc12 | inactive: 6.48%

Row | SMILES | growth rescue (activation)
67 | O=C1c2ccccc2CN1CCNS(=O)(=O)c1ccc2ccccc2c1 | inactive: 19.5%
68 | CCN1CCCC1CN(Cc1cc2cc(OC)ccc2[nH]c1=O)C(=O)NCc1ccccc1 (configuration not stated) | inactive: 11.2%
69 | CN(C)c1ccc(C2/C(=C(/O)c3ccccc3)C(=O)C(=O)N2CCCC(=O)O)cc1 (configuration not stated) | inactive: -0.407%
70 | COCCCNC(=O)c1ccc2c(c1)nc(C)n2-c1cccc(C)c1 | inactive: 10%
71 | Cc1ccc(CNC(=O)c2ccc(NS(=O)(=O)c3c(C)noc3C)cc2)cc1 | inactive: 28.8%
72 | COC(CNC(=O)c1ccc2c(c1)ncn2-c1ccc(F)cc1F)OC | inactive: -4.43%
73 | O=C(O)Cc1ccc(C(=O)c2ccc(Cl)cc2Cl)s1 | inactive: 8.07%
74 | Cc1noc(C)c1CSc1ccccc1C(=O)OC(C)C(N)=O (configuration not stated) | inactive: 7.01%
75 | O=c1cc(N2CCCCC2)c2ccccc2o1 | inactive: -2.07%
76 | CC(C)Oc1ccccc1OCCCCn1cnc2ccccc2c1=O | inactive: -1.31%
77 | CCc1nc2ccc(C(=O)NCCc3ccccn3)cn2c1N(CCC(C)C)CCN(C)C | inactive: 14.1%
78 | O=C(Nc1ccc2c(c1)C(=O)OC2)c1ccc(Cl)cc1Cl | inactive: -3.87%
79 | CC(=O)Nc1ccc(NC(=O)CCOc2ccccc2C)cc1 | inactive: 13.9%
80 | CCOC(=O)C1CCCN(C(=O)c2ccc3ccccc3c2)CC1 (configuration not stated) | inactive: 31%
81 | Cc1cc(C)cc(C(O)c2ncc(-c3ccc(Cl)cc3)[nH]2)c1 (configuration not stated) | inactive: 13.8%
82 | CC(=O)/C(N=Nc1c(C)n(C)n(-c2ccccc2)c1=O)=C(\C)O | inactive: 6.81%
83 | Cc1ccc(SCC(=O)NC(=O)NCc2ccccc2)c(C)c1 | inactive: 6.93%
84 | COc1ccc(/C=C/C(=O)NC(=S)N2CCN(c3ccccc3OC)CC2)cc1 | inactive: -2.91%
85 | NNC(=O)C1=NOC(CNc2ncc(C(F)(F)F)cc2Cl)C1 (configuration not stated) | inactive: 19.7%
86 | CC1(C(=O)Nc2cnc3ccccc3c2)CCN1Cc1ccc(OC(F)(F)F)cc1 (configuration not stated) | inactive: 26.5%
87 | CN1C(=O)CC(N2CCN(CC(=O)N3CCCC3)CC2)C1=O (configuration not stated) | inactive: 5.87%
88 | Cc1ccc(CN2CCN(/N=C/c3cccnc3)CC2)c(C)c1 | inactive: 3.69%

Row | SMILES | growth rescue (activation)
89 | COc1ccc(S(=O)(=O)/N=C2\C=C(Nc3ccc(O)cc3)C(=O)c3ccccc32)cc1 | inactive: -3.15%
90 | Cc1cc2nc(-c3ccc(SCc4ccccn4)nc3)[nH]c2cc1C | inactive: -23.9%
91 | O=C(O)CCCCNS(=O)(=O)/C=C/c1ccccc1 | inactive: 11%
92 | Cc1ccc(C(=O)CC(c2cccs2)S(=O)(=O)c2ccc(C)cc2)cc1 (configuration not stated) | inactive: 7.94%
93 | COC(/C=C/Nc1ccc(Cl)cc1)=C(C#N)C#N | inactive: 1.01%
94 | O=C(Nc1ccccc1F)c1ccc2sc([C@@H]3O[C@H](CO)[C@H](O)[C@H](O)[C@H]3O)nc2c1 | inactive: -5.89%
95 | COCCCn1c(-c2ccc(S(=O)(=O)N3CCOCC3)cc2)csc1=Nc1ccccc1 | inactive: 0.815%
96 | CCOP(=O)(OCC)C(Nc1ccccn1)c1ccc(F)cc1 (configuration not stated) | inactive: 21.5%
97 | Cc1c(C=O)c2ccccn2c1C(=O)c1cccc([N+](=O)[O-])c1 | inactive: 33.6%
98 | O=C(CN(C(=O)CCC(=O)Nc1nccs1)c1ccc2c(c1)OCO2)NCc1ccc(F)cc1 | inactive: 6.95%
99 | Nc1nnnn1/N=C/C(Br)=C/c1ccccc1 | inactive: 13.2%
100 | CC(Sc1n[nH]c(-c2cccs2)n1)C(=O)N1CCCC1 (configuration not stated) | inactive: 15.6%
101 | CCOC(=O)C1(CCOc2ccccc2)CCN(Cc2ccccc2O)CC1 | inactive: 0.999%
102 | CCn1c([N+](=O)[O-])nc2c1c(=O)[nH]c(=O)n2C | inactive: -0.0518%
103 | CCOc1ccc(/C=N/NC(=O)Cn2ccnc2C)cc1 | inactive: 10.4%
104 | O=S1(=O)CCC(NC(=S)Nc2ccc(Cl)cc2)C1 (configuration not stated) | inactive: -7.22%
105 | Cc1ccc(C)c(CN2C(=O)CSc3ccc(C(=O)N4CCCC4)cc32)c1 | inactive: -2.72%
106 | CSc1ccccc1NC(=O)c1cc(-c2ccco2)on1 | inactive: 13.5%
107 | Cc1ccc(NC(=O)Cn2cc(C(=O)C3CCCCC3)c3ccccc32)cc1 | inactive: 13.7%
